Measured values taken from patent US12643954B2, “Anti-CD36 antibodies and their use to treat cancer” (ONA Therapeutics, S.L., priority 2020, dated 2026).
“Also recorded” adds a separate entry of the source. Like-named read-outs stand apart in the source and are kept apart here.

Columns and labels:
OVCAR-3 cells = assay: OVCAR-3 orthotopic mouse model of ovarian cancer (Example 9); type: in vivo
Experimental: Studies of the effects of the ONA-0-v1 and 1G04 anti-CD36 antibodies on ovarian cancer were performed in NSG mice (immuno-deficient). The studies included only female mice. All mice were inoculated with commercially available OVCAR-3 (ATCC) cancer cells. OVCAR-3 cells were derived from a human progressive adenocarcinoma of the ovary (i.e., from an ovarian cancer). For each mouse, a piece of an OVCAR-3 xenograft was implanted orthotopically. Prior to inoculation, the OVCAR-3 cells were cultured in a humidified incubator at 37° C. with 5% CO2, and were grown in RPMI-1640 supplemented with 5 μg ml^−1 penicillin/streptomycin, 0.01 mg/ml bovine insulin and 20% FBS (GIBCO).
Treatment of the implanted mice began 7 days after implantation with the OVCAR-3 tumor pieces. Inoculated mice were divided into one of three treatment groups: vehicle injection control (n=9), ONA-0-v1 treatment (n=9), or 1G04 treatment (n=9). ONA-0-v1 antibody treatments were administered via intraperitoneal (i.p.) injection daily at a dose of 3 mg/kg. 1G04 antibody treatments were administered via i.p. injection TIW (three-times weekly) at a dose of 10 mg/kg. Control mice received an equal volume of vehicle daily. […] Mice were sacrificed at the end of the treatment period. Upon sacrifice, organs and tissues were collected for performance of necropsy and histopathology analysis.

MC-38 cells = assay: MC-38 intrasplenic syngeneic colon cancer model; type: in vivo, mouse
Experimental: Studies of the effects of the 1G04 anti-CD36 antibody on lung cancer were performed in C57BL/6 mice (immuno-competent). The studies included only female mice. All mice were inoculated with commercially available MC-38 cancer cells, transduced with a vector expressing luciferase. MC-38 cells are cells derived from a mouse colon adenocarcinoma (i.e. from a colon cancer). Prior to inoculation, MC-38 cells were cultured in a humidified incubator at 37° C. with 5% CO2 and were grown in DMEM medium supplemented with 5 ug ml^−1 penicillin/streptomycin and 10% FBS (GIBCO).
For each mouse, 1×10^6 MC-38 cells were inoculated intrasplenically. Each mouse was imaged 4 days later, and liver metastasis was confirmed by ex vivo luminescence prior to start of treatment on day 5 after inoculation. As detailed in FIG. 31B, inoculated mice were divided into one of two treatment groups: vehicle injection control (n=13) or 1G04 treatment (n=10). Antibody treatments were administered via intraperitoneal (i.p.) injection at a dose of 10 mg/kg three times per week, while control mice received an equal volume of vehicle on the same schedule. One day prior to the start of treatment, and twice weekly after the start of treatment, all mice were imaged via IVIS. Mice were sacrificed at the end of the treatment period (day 60). […]

[1] = target: T1, cells overexpressing human CD36 (Homo sapiens, UniProt P16671); assay: FACS binding to cells overexpressing human CD36
T1 construct: expressed in transfected cells
T1 sequence (P16671 whole entry): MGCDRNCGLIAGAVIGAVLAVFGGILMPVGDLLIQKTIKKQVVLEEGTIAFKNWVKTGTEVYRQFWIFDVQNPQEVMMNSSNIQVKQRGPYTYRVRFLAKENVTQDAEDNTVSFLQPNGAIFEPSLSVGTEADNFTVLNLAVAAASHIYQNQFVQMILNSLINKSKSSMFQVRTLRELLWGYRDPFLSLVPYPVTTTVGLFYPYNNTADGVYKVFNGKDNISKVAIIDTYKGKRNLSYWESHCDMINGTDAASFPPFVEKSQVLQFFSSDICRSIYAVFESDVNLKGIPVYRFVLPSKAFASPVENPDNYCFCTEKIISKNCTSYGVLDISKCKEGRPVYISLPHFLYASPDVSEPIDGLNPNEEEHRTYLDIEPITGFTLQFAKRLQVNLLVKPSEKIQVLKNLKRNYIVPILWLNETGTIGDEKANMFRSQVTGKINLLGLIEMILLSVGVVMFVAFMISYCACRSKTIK
Experimental: For FACS analysis, cells were trypsinized, collected in a 15 mL tube and diluted in washing buffer (2% FBS in PBS). Cells were then centrifuged at 1500 rpm for 5 min at 4° C., supernatant was discarded, and cells were resuspended in fresh washing buffer. Anti-CD36 antibodies were either omitted (control wash buffer treatment) or serially diluted in washing buffer (dilution range up to 100 nM), and then added to the cells. Incubation was performed on ice for 1 hour. Cells were then centrifuged at 1500 rpm for 5 min at 4° C., supernatant was discarded, and cells were resuspended in fresh washing buffer. Finally, cells were incubated with a […] (BV421 Rat Anti-Mouse IgA, Becton Dickinson, reference 743293) diluted 1:100 in washing buffer, washed and analysed by FACS.

CD36 = CD36 (Homo sapiens, UniProt P16671); assay: Surface plasmon resonance (Biacore T200) affinity for human CD36; type: binding
Experimental: The affinity of ONA-0-v1, 1G04, and a commercial anti-CD36 antibody (JC63.1) for human CD36 was also measured by surface plasmon resonance (SPR) using a Biacore T200. 1G04 was analysed using a protein A capture surface, with a capture range of 100-150 RU and an antigen titration range of 3.3-333 nM. The mouse antibodies ONA-0-V1 and the commercial anti-CD36 antibody were analysed using an anti-mouse IgA capture surface, with a capture range of 160-180 RU and an antigen titration range of 3.3-333 nM. For each single analysis cycle a titration of five antigen concentrations were injected over the captured antibody and then the dissociation of the complex was measured. A double referencing method was employed in which data from the reference surfaces where no antibody was captured (fc 1 and 3 respectively) were subtracted from the antibody bound capture surface (fc 2 and 4). Blank injections of buffer were run for every antigen titration cycle and then subtracted from analyte injection cycles, to correct for small changes in the antibody capture surface density. All analysis was performed at 25° C., and the sample rack was kept at 6° C. during experimental runs. Each experiment was run at least three times with the mean binding constants generated from at least two independent assays reported. All analysis was performed in PBS-T running buffer at 40 μL/min.

B1: 1G04: chimeric ONA-0-v1 IgG1 LALA antibody; heavy chain SEQ ID NO: 21, light chain SEQ ID NO: 23 (antibody)
heavy: QVQLKQSGADLVRPGASVKLSCKASGYTFTDYYINWVKQRPGQGLEWIARIYPGSGNTYYNEKFKGKATLTAEKSSSTAYMQLSSLTSEDSAVYFCARGIGGGFGMDYWGQGTSVTVSS[skipping human IgG1 constant region with changes]
light: SIVMTQTPKFLLVSAGDRITITCKASQSVSDDVAWYQQKPGQSPKLLIYYASNRYTGVPDRFTGSGYGTDFTFTISTVQAEDLAVYFCQQDYSSPLTFGAGTKLEIKRTVAAPSVFIFPPSDEQLKSGTASVVCLLNNFYPREAKVQWKVDNALQSGNSQESVTEQDSKDSTYSLSSTLTLSKADYEKHKVYACEVTHQGLSSPVTKSFNRGEC
modifications: 1G04 heavy chain; 1G04 light chain; 1G06 light chain
decrease in total number of metastases relative to vehicle (OVCAR-3 cells; ONA-0-v1 3 mg/kg i.p. daily, 1G04 10 mg/kg i.p. TIW): approximately 35%
mice free of metastasis in the liver (OVCAR-3 cells; macroscopic analysis): 89%
mice having 1-2 mm metastasis in the liver (OVCAR-3 cells; macroscopic analysis): 11%
mice having 1-2 mm metastasis in the peritoneal wall (OVCAR-3 cells; macroscopic analysis): 49%
mice having 2-5 mm metastasis in the liver (OVCAR-3 cells; macroscopic analysis): none
mice having 2-5 mm metastasis in the peritoneal wall (OVCAR-3 cells; macroscopic analysis): 11%
mice having <1 mm metastasis in the liver (OVCAR-3 cells; macroscopic analysis): none
mice having >5 mm metastasis in the peritoneal wall (OVCAR-3 cells; macroscopic analysis): 7%
mice metastasis-free in the peritoneal wall (OVCAR-3 cells; macroscopic analysis): 33%
animals free of metastases in the lung (OVCAR-3 cells; microscopic analysis): 66%
mean metastasis number in the lungs per mouse (OVCAR-3 cells; microscopic analysis): 1.2
weight of mice throughout the treatment period (OVCAR-3 cells; mouse, in vivo): remained the same
total number of metastases counted (OVCAR-3 cells; visual inspection of organs, sum per group): 34
whole-animal bioluminescence during the study (MC-38 cells; 10 mg/kg i.p. three times per week): decreases luminescence
ex vivo luminescence, liver (MC-38 cells; at sacrifice): 6.67*10^4
binding to cells overexpressing human CD36 (FACS) ([1]; antibodies at 100 nM): bound equivalently
binding to cells overexpressing human CD36 (FACS) ([1]; serial dilution up to 100 nM): specifically bound; also recorded: bound equivalently
comparison of SPR binding to human CD36 (CD36; SPR analysis, in words): tightest binding
ka (CD36; SPR, 1-to-1 model, 25° C.): 100000 M⁻¹ s⁻¹
kd (CD36; SPR, 1-to-1 model, 25° C.): 0.000159 s⁻¹
ka1 (CD36; SPR, 2-state model): 157000 M⁻¹ s⁻¹
ka2 (CD36; SPR, 2-state model): 0.00131 s⁻¹
kd1 (CD36; SPR, 2-state model): 0.00324 s⁻¹
kd2 (CD36; SPR, 2-state model): 0.000164 s⁻¹
ka2 (CD36; SPR, bivalent model): 6.41E−02 1/RUs
kd1 (CD36; SPR, bivalent model): 0.000669 s⁻¹
kd2 (CD36; SPR, bivalent model): 0.0548 s⁻¹
ka1 (CD36; SPR, bivalent model, first ka1 column): 52300 M⁻¹ s⁻¹
Kd (CD36; SPR, bivalent model, read-out: KD1): 15.6 nM
Kd (CD36; SPR, bivalent model, read-out: KD2): 114 nM
